{
  "source": "PubChem BioAssay AID485341",
  "about": "(National Center for Advancing Translational Sciences (NCATS), 2010)",
  "note": "About 1,700 (0.52%) of roughly 330,000 compounds were called active. Inconclusive means that the source gave no clear call. Such entries were picked first, then a sample of the others. The call rests on the fitted dose curve; in most records, active means well fitted inhibition curve with a large enough effect; inconclusive means small, poorly fitted or top-dose-only effect; inactive means no such curve, though single readings can be large or run the other way. A potency beside an inconclusive call is a rough fit, not a confirmed value. Potency means the concentration at half of the fitted maximal effect; tags describe the fitted curve by direction and shape.",
  "data": [
    {"target": "Beta-lactamase (Escherichia coli (strain K12)) (UniProt P00811)", "sequence (P00811 whole entry, looked up)": "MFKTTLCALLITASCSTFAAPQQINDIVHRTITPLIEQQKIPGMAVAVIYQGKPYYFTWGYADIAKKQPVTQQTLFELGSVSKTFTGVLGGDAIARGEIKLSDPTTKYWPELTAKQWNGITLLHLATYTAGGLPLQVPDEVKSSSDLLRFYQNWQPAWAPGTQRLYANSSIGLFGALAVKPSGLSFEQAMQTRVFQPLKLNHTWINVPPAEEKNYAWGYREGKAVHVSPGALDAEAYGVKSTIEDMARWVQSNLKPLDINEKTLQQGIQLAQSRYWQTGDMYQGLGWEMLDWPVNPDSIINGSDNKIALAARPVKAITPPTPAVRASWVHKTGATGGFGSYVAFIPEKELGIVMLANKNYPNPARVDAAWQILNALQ", "test": "qHTS Inhibitors of AmpC Beta-Lactamase (assay without detergent); further: nearly all actives have a fitted effect of over 20% in size", "details": "AmpC nitrocefin hydrolysis, absorbance 480 nm, 0.0001% Triton; series mostly up to 57.1 µM", "summary_of_the_method": "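20 mM phosphate pH 7.0 + 0.01% (detergent screen) or 0.0001% Triton X-100; 5.3 nM AmpC reagent; cpd preinc 15 min RT; nitrocefin (800 uM stock) to start; A480 q20 s × 4 min; Activity was normalised to no-enzyme and no-compound control wells.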", "values": [
      {"smiles": "COc1cccc(-c2nnc(NC(=O)C(C)C)o2)c1", "Potency": "inconclusive: 44.7 µM [inhibitor, partial curve, poor fit]"},
      {"smiles": "Clc1ccc(Nc2ccc(Cl)nn2)cc1", "Potency": "inactive"},
      {"smiles": "N#CCSc1nc(-c2ccccc2)cs1", "Potency": "inconclusive: 6.31 µM [inhibitor, single point]"},
      {"smiles": "O=C(COC(=O)c1cccc([N+](=O)[O-])c1)NNC(=O)c1cccs1", "Potency": "inactive"},
      {"smiles": "COc1ccc(-c2nc(CCNC(=O)c3ccc(Br)o3)cs2)cc1", "Potency": "active: 44.7 µM"},
      {"smiles": "Cc1c(CC(=O)NCCCCCC(=O)O)c(=O)oc2cc3c(cc12)CCC(C)(C)O3", "Potency": "inactive"},
      {"smiles": "Cc1ccc(S(=O)(=O)NC(C)C(c2cccs2)N2CCN(c3ccccc3)CC2)cc1", "note": "(centres undefined)", "Potency": "inconclusive: 10 µM [inhibitor, partial curve]"},
      {"smiles": "Cc1ccc(Cl)cc1NC(=O)c1ccc(Cn2cc(Cl)cn2)cc1", "Potency": "active: 11.2 µM"},
      {"smiles": "CC1CCN(C(=O)Cn2c3ccccc3c3nc4n(c(=O)c32)CCCS4)CC1", "Potency": "inactive"},
      {"smiles": "N=c1ccn2c(n1)OC1C(O)C(CO)OC12", "note": "(centres undefined)", "Potency": "inactive"},
      {"smiles": "Cc1ccc(N/C(N)=N/c2nc(CSc3nnc(C)s3)cc(=O)[nH]2)c(C)c1", "Potency": "inactive"},
      {"smiles": "OC1(c2ccc(Cl)cc2)CN(c2ccccc2)C2=[N+]1CCS2", "note": "(centres undefined)", "Potency": "inconclusive: 15.8 µM [inhibitor, partial curve]"},
      {"smiles": "Cc1ccc(S(=O)(=O)N/N=C\\c2ccc3c(c2)OCO3)cc1", "Potency": "inactive"},
      {"smiles": "COc1ccc(-c2cc(C(=O)Nc3cccc(S(=O)(=O)NCc4ccco4)c3)c3ccccc3n2)cc1OC", "Potency": "active: 2 µM"},
      {"smiles": "COC(=O)C1=C(C)N=C2SC(C#N)=C(N)N2C1c1ccc(OCc2ccccc2)cc1", "note": "(centres undefined)", "Potency": "inconclusive: 7.08 µM [inhibitor, partial curve]"},
      {"smiles": "COC(=O)C1(O)CC(CC(C)C)=NN1C(=O)c1ccccc1", "note": "(centres undefined)", "Potency": "inconclusive: 0.158 µM [inhibitor, full curve, poor fit]"},
      {"smiles": "O=C(Nc1ccc(O)cc1)/C(=C\\C=C\\c1ccccc1)NC(=O)c1ccccc1", "Potency": "inconclusive: 7.08 µM [inhibitor, partial curve, poor fit]"},
      {"smiles": "Cc1cccc(NC(=S)NNC(=O)c2csc3c2CCCC3)c1", "Potency": "inconclusive: 20 µM [inhibitor, partial curve]"},
      {"smiles": "CCOc1ccc2nc(SCC(=O)N3c4ccccc4Sc4ccccc43)c(C#N)cc2c1", "Potency": "inconclusive: 1.26 µM [inhibitor, full curve]"},
      {"smiles": "COc1ccccc1C(=O)N1CCNC(=O)C1CC(=O)Nc1ccc(Cl)cc1", "note": "(centres undefined)", "Potency": "inconclusive: 0.891 µM [inhibitor, partial curve, poor fit]"},
      {"smiles": "Cc1ccccc1-c1nc(CS(=O)(=O)CC(=O)NCc2ccccc2)c(C)o1", "Potency": "inconclusive: 50.1 µM [inhibitor, partial curve, poor fit]"},
      {"smiles": "COc1ccc(OC)c(NC(=O)c2ccc(-c3cccs3)cc2)c1", "Potency": "inconclusive: 22.4 µM [inhibitor, partial curve]"},
      {"smiles": "Cc1ccnc(N=Cc2c(O)ccc3oc4c(c23)CCCC4)c1", "Potency": "inconclusive: 22.4 µM [inhibitor, single point]"},
      {"smiles": "O=C(NNC(=O)c1cc(-c2ccncc2)nc2ccccc12)c1cccc(Cl)c1", "Potency": "inconclusive: 35.5 µM [inhibitor, single point]"},
      {"smiles": "Cc1cccc(C(=O)Nc2cc(OCc3cccc(F)c3)c(Cl)cc2Cl)c1", "Potency": "inconclusive: 5.62 µM [inhibitor, single point]"},
      {"smiles": "COc1cc2c(cc1NC(=O)Nc1ccc(F)cc1)oc1ccccc12", "Potency": "active: 14.1 µM"},
      {"smiles": "CCOc1ccc(N2CC(NS(=O)(=O)c3cccnc3)CC2=O)cc1", "note": "(centres undefined)", "Potency": "inconclusive: 35.5 µM [inhibitor, single point]"},
      {"smiles": "CN1CCN(c2ccc(S(=O)(=O)N3CCCCC3)cc2NC(=O)Cc2c(F)cccc2Cl)CC1", "Potency": "inconclusive: 35.5 µM [inhibitor, single point]"},
      {"smiles": "Cc1ccc(C2/C(=C(/O)c3cnn(-c4ccccc4)c3C)C(=O)C(=O)N2CCN2CCOCC2)o1", "note": "(centres undefined)", "Potency": "inactive"},
      {"smiles": "O=c1c2ccccc2[nH]c(=S)n1CCCN1CCN(c2ccccc2F)CC1", "Potency": "inactive"},
      {"smiles": "CC1CCCCC1NC(=O)c1ccc(CNc2c(N3CCCC3)c(=O)c2=O)cc1", "note": "(centres undefined)", "Potency": "inconclusive: 44.7 µM [inhibitor, partial curve, poor fit]"},
      {"smiles": "CCOC(=O)c1cnc2c(Cl)cc(Cl)cc2c1NCCCN1CCOCC1", "Potency": "inactive"},
      {"smiles": "CCOC(=O)C1=C(C)Nc2sc(C(=O)c3ccc(OC)cc3)c(N)c2C1c1ccc(C(=O)OC)cc1", "note": "(centres undefined)", "Potency": "inconclusive: 3.98 µM [inhibitor, single point]"},
      {"smiles": "CC1=C(n2nnc([N+](=O)[O-])n2)C(c2cccnc2)C(C#N)=C(N)O1", "note": "(centres undefined)", "Potency": "inactive"},
      {"smiles": "Cc1cc(N=Cc2c(O)n(-c3cccc(Cl)c3)c(=O)c3ccccc23)no1", "Potency": "inconclusive: 31.6 µM [inhibitor, single point]"},
      {"smiles": "CN(C)S(=O)(=O)c1cccc(NC(=S)N/N=C/c2ccc(O)c(O)c2O)c1", "Potency": "inconclusive: 6.31 µM [inhibitor, partial curve]"},
      {"smiles": "CS(=O)(=O)Nc1cccc(C2=NN(C(=O)c3ccccc3Cl)C(c3ccccc3O)C2)c1", "note": "(centres undefined)", "Potency": "inconclusive: 31.6 µM [inhibitor, single point]"},
      {"smiles": "CS(=O)(=O)c1ccc(Cl)c(NC(=O)c2cc(S(=O)(=O)N3CCOCC3)ccc2N2CCCC2)c1", "Potency": "inactive"},
      {"smiles": "Cc1ccccc1CSc1n[nH]c(NS(=O)(=O)c2ccccc2)n1", "Potency": "inconclusive: 8.91 µM [inhibitor, single point]"},
      {"smiles": "O=S(=O)(Nc1ccn(-c2ccccc2)n1)c1ccc(Br)cc1", "Potency": "inconclusive: 15.8 µM [inhibitor, partial curve]"},
      {"smiles": "CCc1cc2c(SCC(=O)Nc3cc(C)on3)ncnc2s1", "Potency": "inconclusive: 25.1 µM [inhibitor, single point]"},
      {"smiles": "CCc1ccc(S(=O)(=O)NCCc2csc(-c3cccnc3)n2)s1", "Potency": "active: 35.5 µM"},
      {"smiles": "COc1cc(/C=N/NC(=S)NC2CC3CCC2C3)ccc1O", "note": "(centres undefined)", "Potency": "inconclusive: 8.91 µM [inhibitor, full curve, poor fit]"},
      {"smiles": "Cn1c2cc(B(O)O)sc2c2cnn(Cc3c(F)cccc3F)c(=O)c21", "Potency": "active: 5.62 µM"}
    ]}
  ]
}
